This is one part of the list.

For 14 molecules, binding signal results are on record in publication PMC12136788.

Sequences and labels used below:
T1: UNK ZnF1-3 (human, UniProt Q9C0B0 31-174)
T1 sequence: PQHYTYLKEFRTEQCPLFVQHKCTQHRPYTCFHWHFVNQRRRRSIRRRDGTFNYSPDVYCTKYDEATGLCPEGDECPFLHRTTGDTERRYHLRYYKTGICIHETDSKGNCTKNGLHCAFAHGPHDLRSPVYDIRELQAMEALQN

B1: chr9:111175947:111175948:+_ENSMUSG00000046785_ENSMUST00000060711|mus_mus|FALSE|FALSE (ssRNA)
RNA: GGGAGUUCUACAGUCCGACGAUCGGCCUGAAGUUUUGUUAGCUCCACUCUUACAGAAAUAGGCGCAUAUUCCGGUUUAAAGCUAAAUGGAUUUGAGAAAAGUUCUAAGUCCUUUUUAAUGAACCUGAGGUCCUUAAAAUGUCUCAACAGAGGAUUGAGCAUCA
B2: 117897688_117899135_1137_CDS_ENSMUSG00000033295_ENSMUST00000150096|mouse|control|control (ssRNA)
RNA: GGGAGUUCUACAGUCCGACGAUCGAUGUCUUCAUCGCAGCGGCCACACGGAAAUUCUUGGCAAACACUGCCCCUGUUGUAGUAACCACCUUGGGCUUGCUUCGGGCACCAUCCCCCUUAGUGGUGUAGGCAGCGACGGUGAUGCAACAGAGGAUUGAGCAUCA
B3: chr14:96998876:96998877:+_ENSG00000090060_ENST00000216277|hu_hu|FALSE|FALSE (ssRNA)
RNA: GGGAGUUCUACAGUCCGACGAUCAUAAAGCUGGCAAGUUCUUGCUACUAGCAUAGCCCAGGAAACACCACCGAGGAAACCUAAUAUAUUGGAAUAGAUGUUGUGGCGUUUGGCCCAUAGUUUGAUAGCUCUCAGAGUUAACCUCAACAGAGGAUUGAGCAUCA
B4: chr19:2271408:2271409:+_ENSG00000104904_ENST00000602676|hu_mus|motif|central (ssRNA)
RNA: GGGAGUUCUACAGUCCGACGAUCUGGGAUCUUCAGGGGUGGGUGAGGGACAUCGCACCACCGAGGCCCCGGACCCAGGUUACGGCAGCAAUUAAGGGCAACCCUAGAACUCUCGCUGCUGCAGCCGCCGCGGCUGUGCUGACUCAACAGAGGAUUGAGCAUCA
B5: chr14:89307221:89307222:+_ENSG00000165533_ENST00000346301|hu_mus|hu_hu_hu_mus_False|38_98 (ssRNA)
RNA: GGGAGUUCUACAGUCCGACGAUCUCCUGUUUGGUUAGUUCCAGGGAGCUUCAAAGAUGUGCCAGGGCGUGGGACCUGAGCAAUAGCAUUUUCAUCCAGCAUCAUUUCAGCAAUUCCUUCCUGGUCCACAUCAAUUUCAUCUAUCAACAGAGGAUUGAGCAUCA
B6: 49651088_49651498_709_3pUTR_ENSMUSG00000028309_ENSMUST00000029989|mouse|control|control (ssRNA)
RNA: GGGAGUUCUACAGUCCGACGAUCCCCUCUCUCACGGUCAUCUUUGCGUUCCUGAUUGCUAUCAGAGUCAGGUUCUGGUUCUGGCACAACCAAGGCUUUCCUUUCUGUGAGUAGGUCCCCCAAACCCUGGUCCAGAUCAUAACGCAACAGAGGAUUGAGCAUCA
B7: 46692762_46692882_289_3pUTR_ENSMUSG00000015605_ENSMUST00000015749|mouse|control|control (ssRNA)
RNA: GGGAGUUCUACAGUCCGACGAUCUUGGCUCGGUAACAUGGCGCUCAGUGCAGGAGGGCUGACGGGCAAGUCAGCGAGGAAUCGGGGCAGCUGCCGCCAUCGGCUUCUCGGUUCCACCCGGCACUCGCGCUGUUACUAAAGCCGCAACAGAGGAUUGAGCAUCA
B8: chr14:61442442:61442443:-_ENSG00000126814_ENST00000261249|hu_hu|motif|central (ssRNA)
RNA: GGGAGUUCUACAGUCCGACGAUCUAUGGGAAGGAACUCACUGCUGCAUGGCUGCCCAUCUAAAAGCCACUUGAAAGCACGGAGAAACUCUAUAGCUUUUGCUGGCAAGUUCAUGACAACGUGCACAGAGGGUUUUCUUUCUUUCAACAGAGGAUUGAGCAUCA
B9: chrX:135579806:135579807:+_ENSG00000102241_ENST00000218364|hu_hu|motif|central (ssRNA)
RNA: GGGAGUUCUACAGUCCGACGAUCCCAAGUUGGUGCCGCUCAUGUUUCCUACCUAGCUCAGGAGCAGGGUUCAGAAGAACGGAGAGGCCGAAAUGACGCUGGAGCUGAGCAGAGAAAGGGAGGUCAACCGCGCUCUGCUCGCGCCAACAGAGGAUUGAGCAUCA
B10: chr17:87533601:87533602:+_ENSMUSG00000037104_ENSMUST00000041369|mus_hu|FALSE|FALSE (ssRNA)
RNA: GGGAGUUCUACAGUCCGACGAUCUGUUGAAUGUGGGCUCACAGGAGCUGUAUGCUGUUUAAUCAAAUGCCAUUUUUGGGCUAAAUCUGAGCCAGCAGGAAAAGGGCAUUUCUCAAGCAUUAAUUCAGAGAGAUGGAUUUUUCUCAACAGAGGAUUGAGCAUCA
B11: chrX:98417731:98417732:-_ENSMUSG00000046032_ENSMUST00000120389|mus_hu|FALSE|FALSE (ssRNA)
RNA: GGGAGUUCUACAGUCCGACGAUCGUUACUUGGCGGCCCGUAAGCGUCGGUCAGGUCCUGCGGCUUCGAGUUAAGGCGCCGGGUAUCAGCUACUGCCGUGUCCGACAUCUUUCCGAAGGAGAGCCUGGGACCGGGGAAAGGGGGCAACAGAGGAUUGAGCAUCA
B12: chr12:32660859:32660860:-_ENSMUSG00000002997_ENSMUST00000036497|mus_hu|FALSE|FALSE (ssRNA)
RNA: GGGAGUUCUACAGUCCGACGAUCGUCACCUUGAUCAAUUACAUGCUCCCCAUCUUUGACCAAUUUUUCAAACAUGGCAUCUAAUACUUGAGACAUCUGCUCCGGAUCCAGAUUCUUAAACAGCAGGAUGUCUUUGCAAGCCUCCAACAGAGGAUUGAGCAUCA
B13: chr4:76691598:76691599:+_ENSG00000138768_ENST00000264904|hu_mus|FALSE|FALSE (ssRNA)
RNA: GGGAGUUCUACAGUCCGACGAUCCUGCUUAAUGAAAAUUUCUGUAAACUGGCUUCCCAAAUCCUCACUCUGUCUUGUAGAAUUUUCUUCUAGUUCUUCCUCUUCGUCAUUAGAUAUUAUAUUAUAAAGUGUGUCCAAAGCAUACAACAGAGGAUUGAGCAUCA
B14: chr17:56236750:56236751:+_ENSMUSG00000002833_ENSMUST00000002911|mus_mus|FALSE|FALSE (ssRNA)
RNA: GGGAGUUCUACAGUCCGACGAUCGCGCCGCUCCUUCUCCUCCCUCUCCUGUUCUCGAAGUCUCCGGAGCUCUUCCUCCUGCUCCCGUCGCCUCCGAGCCUCCAGCUCACGCCUUCGCUCUUCAUCACGUCUCUUCCAUUCACUCAACAGAGGAUUGAGCAUCA

This test concerns the target T1, UNK ZnF1-3. The test can be described thus: nsRBNS (natural sequence RNA bind-n-seq); RBNS binding buffer (assumed for nsRBNS): 25 mM Tris pH 7.5, 150 mM KCl, 3 mM MgCl2, 0.01% Triton X-100, 500 ug/ml BSA, 20 U/ml SUPERase-In, 4 C; UNK is unkempt and MSI1 is Musashi-1; names of the RNAs are library labels; protein concentration not given here; high values mean tight binding.
The molecule B1 gave a binding signal of 0.757 enrichment R.
For B2 the value was 0.916 enrichment R; for B3, 1.12 enrichment R; for B4, 0.886 enrichment R.
For B5 the value was 1 enrichment R; for B6, 0.639 enrichment R.
For B7 the value was 0.174 enrichment R; for B8, 0.972 enrichment R.
Turning to B9, the binding signal came to 0.921 enrichment R.
For the molecule B10, the binding signal was 1.13 enrichment R.
As for B11, the binding signal is 0.903 enrichment R.
For B12 the value was 1.51 enrichment R.
In turn, B13 had a binding signal of 1.77 enrichment R.
The molecule B14 had a binding signal of 0.617 enrichment R.
